Test results published in US20190127440A1 (VIB VZW, published 2019).

Target: T1, human TSLPR ectodomain (extracellular fragment, NP_071431.2 residue 1-221), C-terminal His-tag (human, UniProt Q9HC73 25-221)
T1 construct: range 25-221; Produced in HEK293S MGAT1-/- cells; also called TSLPR extracellular part; not shown: C-terminal His-tag of the pcDNA4/TO construct
T1 sequence (looked up): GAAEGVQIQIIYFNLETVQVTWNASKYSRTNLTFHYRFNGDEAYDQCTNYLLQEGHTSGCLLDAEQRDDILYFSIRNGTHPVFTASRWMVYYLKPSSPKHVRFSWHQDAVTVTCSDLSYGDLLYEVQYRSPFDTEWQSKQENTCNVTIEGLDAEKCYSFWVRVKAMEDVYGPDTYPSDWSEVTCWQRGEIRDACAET
Test: biolayer interferometry (Octet RED96), biotinylated TSLP on streptavidin biosensors, 1:1 model, average of three replicates

B1: C-terminally biotinylated human TSLP_R127A_R130S (pHL-TSLP_R127A_R130S-AVITAG construct) (ligand)
chain: not shown
modifications: specific C-terminal in vivo biotinylation on the AVITAG
notes: Made in HEK293T cells with BirA co-transfection; immobilised on streptavidin biosensors for BLI; also called biotinylated TSLP; not shown: C-terminal AVITAG (and purification tag) of the pHL-AVITAG vector
For B1, the Kd was 32 nM, the koff was 0.0052 s⁻¹ and the kon was 170000 M⁻¹ s⁻¹.
